From publication PMC12820563, “FoxP3 forms a head-to-head dimer in vivo and stabilizes its multimerization on adjacent microsatellites” come the findings set out here.

This is one part of the list.

The experiment addresses T1, MBP-FoxP1dN (Mus musculus, UniProt P58462 326-579).
T1 sequence: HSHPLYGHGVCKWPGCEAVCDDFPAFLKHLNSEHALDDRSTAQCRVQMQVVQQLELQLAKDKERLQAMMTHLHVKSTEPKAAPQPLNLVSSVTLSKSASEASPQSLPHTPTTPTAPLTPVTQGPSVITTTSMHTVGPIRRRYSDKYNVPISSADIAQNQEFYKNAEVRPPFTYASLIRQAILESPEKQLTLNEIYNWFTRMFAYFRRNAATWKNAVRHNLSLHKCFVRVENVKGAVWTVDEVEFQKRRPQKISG
In words: PD-seq (MBP pull-down with sequencing); 20 mM Tris-HCl pH 7.5, 100 mM NaCl, 1.5 mM MgCl2, 0.4 uM protein, 0.1 uM dsDNA library, 30 min, room temperature, amylose pull-down; high values mean tight binding. To be noted: protein: recombinant; tags: His6-MBP; chain copies: 2; dsDNA, one strand shown. In a few lines:
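A degenerate double-stranded DNA library, filled in with Klenow, was added at 0.1 µM to 0.4 µM His6-MBP-tagged mouse FoxP3 or FoxP1 fragment lacking the N-terminus, expressed in E. coli. Incubation lasted 30 min at room temperature in Tris pH 7.5 buffer with NaCl and MgCl2, after which complexes were collected on amylose resin, washed three times, digested with proteinase K to free the DNA, barcoded by PCR and sequenced by Illumina. Binding is the pooled-replicate reads-per-million enrichment of pull-down over input.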
Regarding “GATGATTGTTCTCCCAGCTGATGAATTATCGATATCGAGTAAACAAATTTTCCTAATCTTTCTGTTCAAGCGCCATCTAC”, the binding signal was 1.08 RPM ratio (pull-down/input). The result for “GATGATTGTTCTCCCAGCTGATGAATTCATCTAATCGAGTAAACAAATTTTCCTAATCTTTCTGTTCAAGCGCCATCTAC” reads 1.02 RPM ratio (pull-down/input).

“GATGATTGTTCTCCCAGCTGATGAATTCAACATGTCGAGTAAACAAATTTTCCTAATCTTTCTGTTCAAGCGCCATCTAC”: the binding signal was 0.938 RPM ratio (pull-down/input). As for “GATGATTGTTCTCCCAGCTGATGAATTATAGCGCTCGAGTAAACAAATTTTCCTAATCTTTCTGTTCAAGCGCCATCTAC”, the figure is 0.994 RPM ratio (pull-down/input); as for “GATGATTGTTCTCCCAGCTGATGAATTATCGGGCTCGAGTAAACAAATTTTCCTAATCTTTCTGTTCAAGCGCCATCTAC”, 0.828 RPM ratio (pull-down/input). As for “GATGATTGTTCTCCCAGCTGATGAATTAGAAGCGTCGAGTAAACAAATTTTCCTAATCTTTCTGTTCAAGCGCCATCTAC”, the figure is 0.983 RPM ratio (pull-down/input); as for “GATGATTGTTCTCCCAGCTGATGAATTTAAGGGTTCGAGTAAACAAATTTTCCTAATCTTTCTGTTCAAGCGCCATCTAC”, 0.841 RPM ratio (pull-down/input); as for “GATGATTGTTCTCCCAGCTGATGAATTTACGGAATCGAGTAAACAAATTTTCCTAATCTTTCTGTTCAAGCGCCATCTAC”, 1.29 RPM ratio (pull-down/input).

Consider “GATGATTGTTCTCCCAGCTGATGAATTATGAGAGTCGAGTAAACAAATTTTCCTAATCTTTCTGTTCAAGCGCCATCTAC”, for which the binding signal was 0.846 RPM ratio (pull-down/input). As for “GATGATTGTTCTCCCAGCTGATGAATTCTGTAGTTCGAGTAAACAAATTTTCCTAATCTTTCTGTTCAAGCGCCATCTAC”, the figure is 1.05 RPM ratio (pull-down/input); as for “GATGATTGTTCTCCCAGCTGATGAATTCCACACTTCGAGTAAACAAATTTTCCTAATCTTTCTGTTCAAGCGCCATCTAC”, 0.821 RPM ratio (pull-down/input).

In the case of “GATGATTGTTCTCCCAGCTGATGAATTATAAACCTCGAGTAAACAAATTTTCCTAATCTTTCTGTTCAAGCGCCATCTAC”, the binding signal was 1.11 RPM ratio (pull-down/input). As for “GATGATTGTTCTCCCAGCTGATGAATTTTGGGACTCGAGTAAACAAATTTTCCTAATCTTTCTGTTCAAGCGCCATCTAC”, the figure is 0.815 RPM ratio (pull-down/input); as for “GATGATTGTTCTCCCAGCTGATGAATTTCCAACTTCGAGTAAACAAATTTTCCTAATCTTTCTGTTCAAGCGCCATCTAC”, 0.831 RPM ratio (pull-down/input); as for “GATGATTGTTCTCCCAGCTGATGAATTGAACTTGTCGAGTAAACAAATTTTCCTAATCTTTCTGTTCAAGCGCCATCTAC”, 0.829 RPM ratio (pull-down/input). On to “GATGATTGTTCTCCCAGCTGATGAATTGGTCCGGTCGAGTAAACAAATTTTCCTAATCTTTCTGTTCAAGCGCCATCTAC”, for which the binding signal is 0.81 RPM ratio (pull-down/input). Take “GATGATTGTTCTCCCAGCTGATGAATTGCTTCATTCGAGTAAACAAATTTTCCTAATCTTTCTGTTCAAGCGCCATCTAC”: the binding signal was 1.05 RPM ratio (pull-down/input). Consider “GATGATTGTTCTCCCAGCTGATGAATTCTTGAGTTCGAGTAAACAAATTTTCCTAATCTTTCTGTTCAAGCGCCATCTAC”, for which the binding signal was 0.836 RPM ratio (pull-down/input). With “GATGATTGTTCTCCCAGCTGATGAATTCTTGGGGTCGAGTAAACAAATTTTCCTAATCTTTCTGTTCAAGCGCCATCTAC”, the binding signal was 0.791 RPM ratio (pull-down/input).

For the sequence “GATGATTGTTCTCCCAGCTGATGAATTTACGACCTCGAGTAAACAAATTTTCCTAATCTTTCTGTTCAAGCGCCATCTAC”, the binding signal is 1.1 RPM ratio (pull-down/input). The result for “GATGATTGTTCTCCCAGCTGATGAATTACAGTTGTCGAGTAAACAAATTTTCCTAATCTTTCTGTTCAAGCGCCATCTAC” reads 1.46 RPM ratio (pull-down/input). The result for “GATGATTGTTCTCCCAGCTGATGAATTCAATGTGTCGAGTAAACAAATTTTCCTAATCTTTCTGTTCAAGCGCCATCTAC” reads 0.916 RPM ratio (pull-down/input).

Turning to “GATGATTGTTCTCCCAGCTGATGAATTCACCCTCTCGAGTAAACAAATTTTCCTAATCTTTCTGTTCAAGCGCCATCTAC”, the binding signal is 0.88 RPM ratio (pull-down/input).

Regarding “GATGATTGTTCTCCCAGCTGATGAATTGCTGATGTCGAGTAAACAAATTTTCCTAATCTTTCTGTTCAAGCGCCATCTAC”, the binding signal was 1.22 RPM ratio (pull-down/input). The result for “GATGATTGTTCTCCCAGCTGATGAATTAATGTCCTCGAGTAAACAAATTTTCCTAATCTTTCTGTTCAAGCGCCATCTAC” reads 0.913 RPM ratio (pull-down/input); that for “GATGATTGTTCTCCCAGCTGATGAATTCGGTGGGTCGAGTAAACAAATTTTCCTAATCTTTCTGTTCAAGCGCCATCTAC”, 0.746 RPM ratio (pull-down/input); that for “GATGATTGTTCTCCCAGCTGATGAATTCCGGCGATCGAGTAAACAAATTTTCCTAATCTTTCTGTTCAAGCGCCATCTAC”, 0.757 RPM ratio (pull-down/input). The result for “GATGATTGTTCTCCCAGCTGATGAATTGCGCCGCTCGAGTAAACAAATTTTCCTAATCTTTCTGTTCAAGCGCCATCTAC” reads 1.01 RPM ratio (pull-down/input). The result for “GATGATTGTTCTCCCAGCTGATGAATTAAGGACCTCGAGTAAACAAATTTTCCTAATCTTTCTGTTCAAGCGCCATCTAC” reads 0.841 RPM ratio (pull-down/input).

In the case of “GATGATTGTTCTCCCAGCTGATGAATTCCTCTCTTCGAGTAAACAAATTTTCCTAATCTTTCTGTTCAAGCGCCATCTAC”, the binding signal was 0.833 RPM ratio (pull-down/input).

On to “GATGATTGTTCTCCCAGCTGATGAATTGGTCTATTCGAGTAAACAAATTTTCCTAATCTTTCTGTTCAAGCGCCATCTAC”, for which the binding signal is 1.05 RPM ratio (pull-down/input). As for “GATGATTGTTCTCCCAGCTGATGAATTATAGCTCTCGAGTAAACAAATTTTCCTAATCTTTCTGTTCAAGCGCCATCTAC”, the figure is 0.937 RPM ratio (pull-down/input).
